Results reported in PubChem BioAssay AID1030 (National Center for Advancing Translational Sciences (NCATS), 2008).
The campaign covered roughly 220,000 compounds. About 16,000 (7.3%) were called active. This list was built around the results that the source calls inconclusive (neither active nor inactive); the mix of calls is not that of the screen. Calls follow the shape of the dose curve; as a rule, active = well fitted inhibition curve with a large enough effect (not every such curve was filed as active); inconclusive = small, poorly fitted or top-dose-only effect, or another doubt; inactive = no such curve, though single readings can be large or run the other way. Potencies beside an inconclusive call are fits to weak or partial responses and may not hold up.

These molecules were tested against Aldehyde dehydrogenase 1A1 (Homo sapiens) (UniProt P00352) (assay: qHTS Assay for Inhibitors of Aldehyde Dehydrogenase 1 (ALDH1A1)). Conditions: Purified ALDH1A1, NADH fluorescence, propionaldehyde substrate; series mostly up to 75.3 µM.
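For activity, negative = inhibition in this document: plate controls were no enzyme wells and a reference inhibitor.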
Potency is read from the fitted curve at half-maximal effect; tags tell the direction and shape of the fitted curve.

Chain of UniProt P00352 (P00352 whole entry, looked up): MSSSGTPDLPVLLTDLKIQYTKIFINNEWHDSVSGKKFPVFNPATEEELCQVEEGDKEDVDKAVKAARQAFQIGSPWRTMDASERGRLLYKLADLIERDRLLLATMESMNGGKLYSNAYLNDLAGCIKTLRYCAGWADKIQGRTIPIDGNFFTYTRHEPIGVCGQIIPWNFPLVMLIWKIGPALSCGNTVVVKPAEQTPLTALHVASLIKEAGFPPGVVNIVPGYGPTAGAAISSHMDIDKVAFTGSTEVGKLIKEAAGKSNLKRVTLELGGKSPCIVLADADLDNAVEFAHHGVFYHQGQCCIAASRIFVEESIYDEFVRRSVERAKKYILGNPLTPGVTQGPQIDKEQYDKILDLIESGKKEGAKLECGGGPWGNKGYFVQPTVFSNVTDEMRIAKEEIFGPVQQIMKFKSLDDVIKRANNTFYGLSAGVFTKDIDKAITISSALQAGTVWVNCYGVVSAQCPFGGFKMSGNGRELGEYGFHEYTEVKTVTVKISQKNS

Potency, active:
O=C(Nc1ccc(N2CCOCC2)c(Cl)c1)c1ccc(Br)o1 25.1 µM
NC(=O)COC(=O)c1cc([N+](=O)[O-])ccc1NCCO 20 µM
COc1ccc(C(c2c(O)nc(SC)n(C)c2=O)c2c(O)nc(SC)n(C)c2=O)cc1O 14.1 µM
CC1CC2(CC(C)(C(=O)CSc3n[nH]c(-c4ccccc4Cl)n3)OC2=O)C(=O)O1 (centres undefined) 17.8 µM
COc1cc(/C=N/N2C(=O)C3C4C=CC(CC4)C3C2=O)ccc1O (centres undefined) 14.1 µM
Nn1c(=O)c2ccccc2n2c(SCc3ccc(C(F)(F)F)cc3)nnc12 22.4 µM
CCOC(=O)c1c(C)oc2c1c(C(c1ccccc1)N1CCOCC1)c(O)c1ccccc12 (centres undefined) 3.55 µM
Cc1cc(C)c(C#N)c(SCC(=O)N(C)C2CCCCC2)n1 17.8 µM
CC(Sc1nnc(NCc2ccccc2)s1)C(=O)Nc1ccc2c(c1)C(=O)c1ccccc1C2=O (centres undefined) 2.82 µM
Fc1ccc(N=c2ssnc2Cl)c(F)c1 2.51 µM
C=CCN1C(=O)CSc2ccc(C(=O)NCc3cccs3)cc21 8.91 µM
Nc1ccccc1S[C@@H](C[N+](=O)[O-])c1ccc2c(c1)OCO2 3.55 µM
Cc1cc2ccccc2nc1SCC(=O)Nc1nc(-c2ccccc2)cs1 7.94 µM
O=c1cnc2cncnc2n1Cc1ccccc1 3.98 µM

Potency, inactive:
COc1ccc(C(=O)NNC2=CC(=O)CC(C)(C)C2)cc1OC
O=C(COC(=O)c1ccccn1)NCCCc1ccccc1
CCN(CC)C(=O)c1sc(N2C(=O)Nc3ccccc3N2O)c(C(=O)OC)c1C
O=C(CNS(=O)(=O)c1ccccc1)NCC(=O)OCc1ccccc1F
Cn1c2ccccc2c2cc(C(=O)O)ccc21
COc1ccc(S(=O)(=O)N2CCCC(C(=O)NCCC(C)C)C2)cc1 (centres undefined)
CCn1c(=NC(=O)CN2C(=O)CCC2=O)sc2c(C)cc(C)cc21
O=C(c1ccc(F)cc1)n1c(NCc2ccccc2)n[nH]c1=S
COc1cc(S(=O)(=O)NCc2ccccc2)ccc1Br

Potency, inconclusive:
CCNC(=O)/C(C#N)=C/c1c(N2CC(C)OC(C)C2)nc2ccccn2c1=O (centres undefined) 3.55 µM [inhibitor, partial curve]
CSc1cccc(CNC(=O)CC2C(=O)NCCN2CC(C)(C)C)c1 (centres undefined) 39.8 µM [inhibitor, single point]
CCCS(=O)(=O)N1CCCC(C(=O)c2ccccc2OC)C1 (centres undefined) 3.55 µM [inhibitor, single point]
CNC(=O)c1ccc(-c2ccc(OC)cc2)s1 31.6 µM [inhibitor, partial curve]
COCCCNc1nc2c(-c3ccc(Cl)cc3)nnn2c2ccccc12 7.08 µM [inhibitor, full curve]
C=C1c2cccc(OC)c2O[C@H](C(=O)OCC)[C@@H]1CCC(C)C 56.2 µM [inhibitor, single point]
COc1ccc(NC(C)C(=O)N/N=C/c2ccc([N+](=O)[O-])s2)cc1 (centres undefined) 39.8 µM [inhibitor, single point]
C=CCCCCCCCCCCCc1ccco1 31.6 µM [inhibitor, single point]
COc1cc(/C=N/NC(=O)c2ccc(-n3cccc3)cc2)ccc1O 39.8 µM [inhibitor, single point]
CN(C)/C=N/C(=S)Nc1ccc(Cl)cc1 39.8 µM [inhibitor, single point]
CCCCOC(=O)CNc1n[nH]c(=S)[nH]c1=O 25.1 µM [inhibitor, partial curve]
Cc1nnc(SCC(=O)Nc2cccc(C(F)(F)F)c2)n1Cc1ccco1 31.6 µM [inhibitor, single point]
CCC(C)NCCOc1cc(C)cc(C)c1C (centres undefined) 39.8 µM [inhibitor, single point]
Cc1ccccc1CS(=O)(=O)c1snnc1C 14.1 µM [inhibitor, partial curve]
CCCCN(CC)CCCNC(=O)C1c2ccccc2C(=O)N(C)C1c1cn(C)c2ccccc12 (centres undefined) 20 µM [inhibitor, single point]
Cc1ccc(-c2csc(N(CCCN(C)C)C(=O)c3ccco3)n2)cc1 25.1 µM [inhibitor, single point]
O=C(CSc1nc(-c2cccs2)cc(C(F)(F)F)n1)NCc1ccco1 28.2 µM [inhibitor, partial curve]
Cc1ccc2[nH]cc(C(=O)CN3CCN(c4ccccn4)CC3)c2c1 17.8 µM [inhibitor, partial curve]
CCOC(=O)/C(C#N)=C1/C=C(C)NC(c2ccccc2O)=N1 39.8 µM [inhibitor, single point]
COc1cccc(CN2CCN(C(=O)Nc3ccc([N+](=O)[O-])cc3)CC2)c1 5.62 µM [inhibitor, partial curve]
COCCN=c1scc(-c2ccccc2)n1/N=C/c1c[nH]c2ccccc12 31.6 µM [inhibitor, single point]
C=CCn1c(=N)c(C(=O)NCCCOC)cc2c(=O)n3ccccc3nc21 31.6 µM [inhibitor, partial curve]
Cc1cccc(C(=O)Nc2sc(C)c(-c3ccccc3)c2C#N)c1 28.2 µM [inhibitor, partial curve]
Cc1nnsc1Sc1ccccc1 39.8 µM [inhibitor, single point]
CCc1ccccc1NC(=O)c1cnc2scc(C)n2c1=O 22.4 µM [inhibitor, single point]

activity, negative = inhibition, inactive:
CNc1ncnc(Sc2nc(N)nc3nc[nH]c23)c1[N+](=O)[O-] 21.3% [at 13.5 µM]
